# Screen size: about 310,000 compounds; about 14,000 (4.5%) showed an effect of 50% or more. The effect is printed as a negative number. The list shows a part of the results.
# Target: human ether-à-go-go-related gene (hERG) potassium channel (human, UniProt Q12809)
# Assay: primary screen, population patch clamp on CHO cells stably expressing hERG
# 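Note: peak tail current of the secondary pulse compared with the same well before compound.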
# human ether-à-go-go-related gene (hERG) potassium channel, sequence (Q12809 whole entry, looked up): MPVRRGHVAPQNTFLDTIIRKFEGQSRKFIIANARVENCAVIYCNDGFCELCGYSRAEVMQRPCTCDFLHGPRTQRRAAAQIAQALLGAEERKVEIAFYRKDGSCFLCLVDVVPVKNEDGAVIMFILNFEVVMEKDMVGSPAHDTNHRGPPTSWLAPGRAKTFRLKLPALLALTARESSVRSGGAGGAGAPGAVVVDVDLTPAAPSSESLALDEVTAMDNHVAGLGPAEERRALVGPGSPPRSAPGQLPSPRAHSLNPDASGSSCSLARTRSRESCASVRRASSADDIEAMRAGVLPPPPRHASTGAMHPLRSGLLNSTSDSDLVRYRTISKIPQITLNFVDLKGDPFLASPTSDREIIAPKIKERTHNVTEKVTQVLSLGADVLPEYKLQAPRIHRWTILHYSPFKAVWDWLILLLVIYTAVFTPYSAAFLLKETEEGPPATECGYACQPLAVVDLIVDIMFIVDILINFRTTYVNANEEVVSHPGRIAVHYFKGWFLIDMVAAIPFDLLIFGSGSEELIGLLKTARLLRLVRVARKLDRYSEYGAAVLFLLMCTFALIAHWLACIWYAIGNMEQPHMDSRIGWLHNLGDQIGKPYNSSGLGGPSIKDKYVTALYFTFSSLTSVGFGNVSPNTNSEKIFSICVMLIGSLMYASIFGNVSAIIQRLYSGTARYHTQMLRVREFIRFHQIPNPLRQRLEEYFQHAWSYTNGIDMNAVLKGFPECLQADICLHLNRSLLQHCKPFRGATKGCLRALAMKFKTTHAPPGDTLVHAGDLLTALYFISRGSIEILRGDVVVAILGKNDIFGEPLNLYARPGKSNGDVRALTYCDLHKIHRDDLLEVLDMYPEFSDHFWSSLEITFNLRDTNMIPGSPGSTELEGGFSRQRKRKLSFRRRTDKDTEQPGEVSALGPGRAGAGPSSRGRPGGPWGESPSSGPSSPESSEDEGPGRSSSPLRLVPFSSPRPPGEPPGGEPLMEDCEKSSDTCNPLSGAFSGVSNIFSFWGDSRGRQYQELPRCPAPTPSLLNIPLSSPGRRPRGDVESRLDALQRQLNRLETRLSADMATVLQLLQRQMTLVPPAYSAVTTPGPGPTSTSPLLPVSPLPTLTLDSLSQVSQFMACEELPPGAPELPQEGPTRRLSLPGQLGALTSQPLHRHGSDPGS
row,SMILES,"hERG current change (%, negative = inhibition) at 10uM [%]"
1,COc1cc2cnc(Cl)nc2cc1OC,9.52
2,Cc1c(C(=O)Nc2ccc(S(=O)(=O)Nc3ncccn3)cc2)oc2ccc(Cl)cc12,-17.4
3,C#CCOCCOCCOCCNc1nc(N2CCN(C(=O)[C@H]([C@@H](C)CC)n3cc([C@@H](N)Cc4ccc(O)cc4)nn3)CC2)nc(N2CCN(C(=O)[C@H](CCCCN)n3cc([C@@H](N)CO)nn3)CC2)n1.Cl,7.78
4,Cc1cc(NC(=O)CSC2=Nc3ccccc3C3=NC(Cc4ccccc4)C(=O)N23)n[nH]1 (centres unmarked),-21
5,COc1ccc(NC(=O)C(=O)Nc2cccc3ccccc23)c(OC)c1,9.31
6,CN(C)S(=O)(=O)c1cccc(C(=O)Nc2ccc(Cl)cn2)c1,-5.22
7,Cc1c(Cl)cccc1NC(=S)NCc1ccco1,4.12
8,CC#CCCCC(=O)Nc1cc(OC)nc(OC)n1,-6.02
9,CN(c1ccccc1C(=O)Nc1cccc(Cl)c1Cl)S(C)(=O)=O,10.5
10,Cc1c(Cl)cccc1NC(=O)C1CCN(c2cnccn2)CC1,-3
11,COc1ccc(C(=O)c2c3ccccc3[n+]([O-])n2Cc2ccc(C(N)=O)cc2)cc1,4.67
12,CC(C)(C)NC(=O)COC(=O)C1c2ccccc2Oc2ccccc21,2.16
13,O=C(COC(=O)C1CCN(S(=O)(=O)c2cccs2)CC1)NCc1ccc(F)cc1,-49.7
14,O=C(CN1CCOCC1)NNc1c2ccccc2nc2ccccc12,5.93
15,CC(=O)N/C(=C/c1ccccc1)c1ccccc1,11.1
16,Cc1cc(C)cc(NC(=O)CCC(=O)Nc2nnc(C(C)C)s2)c1,24.1
17,Cc1ccc(-n2c([C@@H]3C[C@H]3c3ccccc3)n[nH]c2=S)cc1,15.7
18,COc1ccc(S(=O)(=O)NCCOc2ccccc2)cc1OC,0.452
19,CN(CCCC1CCCC1)C(=O)c1cc(COc2c(F)cccc2F)on1,-14.6
20,CCCCCC(=O)N/N=C(\C)c1ccccn1,-1.17
21,COc1ccc(CNC(=O)Cn2nc(C)c3c(C)n(-c4ccc(C)cc4)nc3c2=O)cc1OC,8.32
22,Cc1cc(C(F)(F)F)nc(SCc2ccc(C(=O)O)o2)n1,-2.51

row,SMILES,"hERG current change (%, negative = inhibition) at 10uM [%]"
1,CCOc1ccc(S(=O)(=O)Nc2cccc(C(=O)N(C)Cc3cccc(OC)c3OC)c2)cc1,-11.6
2,CCC(=O)N1CCN(c2ccccc2NC(=S)NC(=O)c2cccc([N+](=O)[O-])c2)CC1,-69.9
3,Cc1cc(C)c2c(=O)[nH]c(SCc3ccccc3)nc2n1,7.73
4,CCOc1ccc2oc(-c3ccccc3)c(C(=O)O)c2c1,5.16
5,COc1ccc(NC(=S)NCc2ccc3c(c2)OCO3)cc1,18.7
6,CC(=O)C(C(C)=O)C(c1ccccc1)c1nc2ccccc2[nH]c1=O (centres unmarked),14.1
7,CC[n+]1c(/C=C2/C=C(C)CC(C)C2)sc2ccccc21.[I-] (centres unmarked),-3.25
8,O=C(Nc1cc(Cl)ccc1-n1cncn1)C1CC1,-2.55
9,Cc1oc(-c2ccccc2F)nc1CSCC(=O)NC1CC1,3.12
10,CC1(/[N+]([O-])=C/c2ccc(Cl)cc2Cl)CCCCC1=O (centres unmarked),6.3
11,Cc1ccc(C(=O)Nc2nn(C)c3cccc(F)c23)cc1,15.9
12,c1ccc2c(c1)[nH]c1c(NCC3CCCO3)ncnc12 (centres unmarked),11
13,O=C(O)Cn1cc(CN2CCOCC2)c2ccccc21,2.23
14,CC12CCC(C(=O)N3CCN(c4ccccc4)CC3)(CC1=O)C2(C)C (centres unmarked),-19.4
15,O=C(c1cc2c(ccc3ccccc32)o1)N1CCCCC1,-7.55
16,COc1ccc(S(=O)(=O)N2CCc3ccccc32)cc1C(=O)NC1(C)CCS(=O)(=O)C1 (centres unmarked),-22.2
17,CC(=O)N(Cc1cc2cc(C)c(C)cc2n2nnnc12)CC1COCCO1 (centres unmarked),-6.81
18,COc1cc(/C=C/C(=O)O)cc(S(=O)(=O)Nc2ccccc2SC)c1OC,15.5
19,CC(=O)c1c(C)[nH]c(C(=O)COc2ccc(C#N)cc2)c1C,-4.06
20,Cc1cc(Br)c(OCC(=O)NN)c2c1CCC2,-6.78
21,COc1ccccc1CNC(=O)CCS(=O)(=O)c1ccc2c(c1)CCN2C(C)=O,5.48
22,CCOc1cccc2c1OC1(C)CC2NC(=O)N1c1cccc(F)c1 (centres unmarked),12.4
